Nonsense suppression data for 27 variants are collected here from the RNAGym collection of RNA variant scans (doi:10.1101/gad.245936.114).

This sample is rich in variants without activity.

B1: tRNA (parent)
chain: CUCUCGGUAGCCAAGUUGGUUUAAGGCGCAAGACUUUAAUUUAUCACUACGAAAUCUUGAGAUCGGGCGUUCGACUCGCCCCCGGGAGAUUUUUUCCUCGAGCAA

The series covers variants of B1. The series is described as follows: nonsense suppression (GFP-seq) (ratio to wild type); higher = more function; SUP4oc tRNA, yeast GFP reporter sort-seq. In a few lines: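 Yeast carrying genome-integrated SUP4oc tRNA variants from a library with ~3% random mutations were grown in raffinose/galactose medium with 80 mg/L adenine. Each strain also carried a galactose-driven GFP ochre reporter and RFP. Cells were sorted into GFP/RFP bins, and each bin was Illumina-sequenced (phred ≥30). Nonsense suppression (GFPSEQ) is the bin median GFP/RFP, weighted by each variant's estimated cell share per bin, relative to wild-type SUP4oc; variants needed ≥100 reads and ≥30 cells.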
Consider CUCUCGGUAGCCAAGUUGGUUUAAGGCGCAAGUCUUUAAUUUAUCACUACGAAAUCUUGAGAUCGGGCGUUCGACUCGCCCCCGGGAGAUUUUUUCCUCGAGCAA [A33U], for which the nonsense suppression was determined as 0.0699. For CUCUAGGUAGCCAAGUUGGUUUAAGGCGCAAGACUUUAAUUUAUCACUACGAAAUCUUGAGAACGCGCGUUCGACUCGCCCCCGGGAGAUUUUUUCCUCGAGCAA [C5A U63A G66C], the nonsense suppression was ≤ 0.026.

As to CUCUCGGGAGCCAAGUUGGUUUAAGGCGCAAGACUUUAAUUUAUCACUACGAAAUCUUGAGAACGGGCGUUCGACUCGCCCCCGGGAGAUUUUUUCCUCGAGCAA [U8G U63A], the nonsense suppression was ≤ 0.026. CUCUCGGUAGCCAAGUCGGUUUAAGGCGCAAGACUUUAAUUUAUCACUACGAAAUCUUGAGAUCGGGCGUUCGACUCGCCCCCGGAAGAUUUUUUCCUCGAGCAA [U17C G86A]: the nonsense suppression was ≤ 0.026. CUCUCGGUAGCCAAGUUGGUUUAAGGCGCAGGACUUUAAUUUAUCACUACGAAAUCUUGAGAUCGGGCGAUCGACUCGCCCCCGGGAGAUUUUUUCCUCGAGCAA [A31G U70A]: the nonsense suppression is ≤ 0.026. Turning to CUCUCGCUAGCCAAGUUGGUUUAAGGCGCAAGACUUUAAUUUAUCACUACGAAAUCUUGAGAUCGGGCGCUCGACUCGCCCCCGGGAGAUUUUUUCCUCGAGCAA [G7C U70C], the nonsense suppression is ≤ 0.026. Take CUCUCCGUAGCCAAGUUGGUUUAAGGCGCAAGACUUUAAUUUAUCACUACGAAAUCUUGAGAUCGGGCGUGCGACUCGCCCCCGGGAGAUUUUUUCCUCGAGCAA [G6C U71G]: the nonsense suppression is ≤ 0.026. Turning to CUCUCGGUAGCGAAGUUGAGUUAAGGCGCAAGACUUUAAUUUAUCACUACGAAAUAUUGAGAUCGGGCGUUCGACUCGCCCCCGGGAGAUUUUUUCCUCGAGCAA [C12G G19A U20G C56A], the nonsense suppression was ≤ 0.026.

For the variant CUCUCGGUAGCCCAGUUGGUUUAAGGGGCAAGACUUUAAUUUAUCACUACGAAAACUUGAGAUCGGGCGUUCGACUCGCCGCCGGGAGAUUUUUUCCUCGAGCAA [A13C C27G U55A C81G], the nonsense suppression is ≤ 0.026. GUCUCGGUCGCCAAGUUUGUUUAAGGCGCAAGACUUUAAUUUAUCACUACGAAAUCUUGAGAUCGGGCGUGCGACUCGCCCCCGGGAGAUUUUUUCCUCGAGCAA [C1G A9C G18U U71G]: the nonsense suppression is ≤ 0.026. CUUUCGGUAGUCAAGUUGGUUUAAGGCGCAAGACUUUAAUUUAUCACUACGAAAUCUUGAGAUCGGGCGUUCGACUCGCCCCCGGGAGAUUUUUUCCUCGAGCAA [C3U C11U]: the nonsense suppression was ≤ 0.026. On to CUCUCGGUAGCCAAGUUGGUUUAAGACGCAAGACUUUAAUUUAUCACUACGAAAUCUUGAGUUCGGGCGUUCGACUCGCCCGCGGGAGAUUUUUUCCUCGAGCAA [G26A A62U C82G], for which the nonsense suppression was ≤ 0.026. The value for CUCUCGGUAGCCAAGUCGGUUUCAGUCGCAAGACUUUAAUUUAUCACUACGAAAUCUUGAGAUCGGGCGUUCGACUCGCCCCCGGGAGAUUUUUUCCUCGAGCAA [U17C A23C G26U] was ≤ 0.026; that for CUUUCGGUAGCCAAGUUGGUUUAAGGCGCAAGCCUUUAAUUUAUCACUACGAAAUCUUGAGAUCGAGCGUUGGACUCGCCCCCGGGAGAUUUUUUCCUCGAGCAA [C3U A33C G66A C72G] was ≤ 0.026. As to CUCUCGGUAGCCAAGUUGGUUUAAGGCGCAAGACUUUAAUUUAUCACUACGAAAUCUUGAGAUCGGGCUUUCGACUCGCCCCCGGCAGAUUUUUUCCUCGAGCAA [G69U G86C], the nonsense suppression was determined as 0.17.

With CUCUCGGUAGCCAAGUGGGUUUAAGGCGCAGGACUUUAAUUUAUCACUACGAAAUCUUGAGAUCGGGCGUUCGACUCCCCUCCGGGAGAUUUUUUCCUCGAGCAA [U17G A31G G78C C81U], the nonsense suppression was ≤ 0.026. The value for CUCUCGGUAGCUAAGUUCAUUUAAGGCGCAAGACUUUAAUUUAUCACUACGAAAUCUUGAGAUCGGGCGUUCGCCACGCCCCCGGCAGAUUUUUUCCUCGAGCAA [C12U G18C G19A A74C U76A G86C] was ≤ 0.026; that for CUCUCGGUAGCCAAGUUGGUUUAAGGCACAAGACUUUAAUUUAUCACUACGAAAUCUUGAGAUCGGGCGUUCGACUCGCCCCCGGGAGGUUUUUUCCUCGAGCAA [G28A A89G] was ≤ 0.026; that for CUCUCGGUAGCCAAGUUGGUUUAAGGCGCUAGUCUUUAAUUUAUCACUACGAAAUCUUGAGAUCGGGCGUUCGACUCGCCCCCGGGAAAUUUUUUCCUCGAGCAA [A30U A33U G88A] was ≤ 0.026. Regarding CGCUCGGUAGCCAAGUUGGUUUAAGGCGCAAGACUUUAAUUUAUCACUACGAAAUUUUGACAUCGGGCGUGCGACUCGCCCCCGGGAGAUUUUUUCCUCGAGCAA [U2G C56U G61C U71G], the nonsense suppression is ≤ 0.026. On to CUCUCGCUAGCCAAGUUGGUUUAACGCGCAAGACUUUAAUUUAUCACUACGAAAUCUUGAGAUCGGGCGUUCGACUCGCCCCCGGGAGAUUUUUUCCUCGAGCAA [G7C G25C], for which the nonsense suppression is ≤ 0.026. As to CUCUCGGUAGCCAAGUUGGUUUAUGUGGCAAGACUUUAAUUUAUCACUACGAAAUCUUGAGAUCGGGCGUUCGAGUCGCCCCCGGGAGAUUUUUUCCUCGAGCAA [A24U G26U C27G C75G], the nonsense suppression is ≤ 0.026.

As to CUCUCGGUAGCCAAGUUGGUUUAUGGCGCAAGACUUUAAUUUAUCACUACGAAAUCUUGAGAUGGGGCCUUCGACUCGCCCCCGGGAGAUUUUUUCCUCGAGCAA [A24U C64G G69C], the nonsense suppression is ≤ 0.026. The value for CUCUCGGUAGCCAAGUUGGUUUAAGGCGCAAGACUUUAAUUUAUCACUACGAAAUCUUGAAAUCGGGCGUUCGACUCGCCCCGGGGGGAUUUUUUCCUCGAGCAA [G61A C83G A87G] was ≤ 0.026; that for CUCUCGUUAGCCAAGUUGGUUUAAGGCGCAAGACAUUAAUUUAUCACUACGAAAUCUUGAGAUCGGGCGUUCGACUCGCCCCCGGGAGAUUUUUUCCUCGAGCAA [G7U U35A] was ≤ 0.026. Take CUUUCGGUAGCCAAGUUGUUUUAGGGCGCAAGACUUUAAUUUAUCACUACGAAAUCUUGAGAUCGGGCGUUCGACUCGCCCCCGGGAGAUUUUUUCCUCGAGCAA [C3U G19U A24G]: the nonsense suppression is ≤ 0.026. Consider CUCUCGGUAGCCAAGUUGGUUUAAGGCGCAAGACUUUAAUUUAUCACUACGAAAUCUUGUGAUCGGGCGUUCGACUCGGCCCCGGGUGAUUUUUUCCUCGAGCAA [A60U C79G A87U], for which the nonsense suppression is ≤ 0.026.
